# Experimental data from the supplement of paper PMC3334620.
# Whole data set: some 33,000 sequences, median “E-score (-0.5 to 0.5)” near -0.043, cut for the highest 2% near 0.37. The list shows a part of the results.
# Target: T1, Upc2 (UniProt Q12151)
# T1 sequence: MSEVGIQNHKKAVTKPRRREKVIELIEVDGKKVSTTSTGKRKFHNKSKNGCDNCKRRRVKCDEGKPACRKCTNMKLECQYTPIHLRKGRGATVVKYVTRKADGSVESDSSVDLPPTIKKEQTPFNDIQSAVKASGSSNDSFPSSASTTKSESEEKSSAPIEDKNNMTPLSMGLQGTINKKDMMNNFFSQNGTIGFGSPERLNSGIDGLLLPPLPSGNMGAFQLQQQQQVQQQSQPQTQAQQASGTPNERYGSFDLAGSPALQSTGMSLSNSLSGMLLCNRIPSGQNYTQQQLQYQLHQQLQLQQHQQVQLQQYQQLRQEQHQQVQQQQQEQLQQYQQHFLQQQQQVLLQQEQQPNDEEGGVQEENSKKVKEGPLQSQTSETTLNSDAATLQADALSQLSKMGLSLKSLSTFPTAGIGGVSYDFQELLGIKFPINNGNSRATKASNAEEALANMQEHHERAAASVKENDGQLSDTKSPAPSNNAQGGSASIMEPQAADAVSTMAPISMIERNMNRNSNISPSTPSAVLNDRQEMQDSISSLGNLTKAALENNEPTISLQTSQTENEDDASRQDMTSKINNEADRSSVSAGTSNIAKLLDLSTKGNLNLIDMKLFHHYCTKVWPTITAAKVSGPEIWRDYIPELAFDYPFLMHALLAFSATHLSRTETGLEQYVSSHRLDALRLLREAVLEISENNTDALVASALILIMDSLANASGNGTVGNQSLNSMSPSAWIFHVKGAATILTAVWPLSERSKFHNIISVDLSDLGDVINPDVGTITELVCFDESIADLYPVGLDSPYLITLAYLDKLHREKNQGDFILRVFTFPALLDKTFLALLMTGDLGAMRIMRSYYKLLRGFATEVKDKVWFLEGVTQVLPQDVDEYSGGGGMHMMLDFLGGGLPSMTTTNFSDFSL
# Assay: PBM E-score (8-mer binding enrichment) (E-score (-0.5 to 0.5)); higher = stronger / more preferred TF binding; most listed sequences are background and not binding sites
# Conditions: protein concentration: 200 nM; construct: GST-full length
# In short: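 Detection of bound protein used fluorescent anti-GST, with scans normalised by masliner. The proteins were GST-tagged yeast transcription factors applied at about 100-200 nM to universal all-10-mer Agilent arrays made double-stranded by primer extension. Each ungapped eight-base word, pooled with its reverse complement, was scored with an E-score from the Universal PBM Analysis Suite.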
row,Sequence,PBM E-score
1,GCGTGCCC,-0.0635
2,GAAAGGTA,0.00105
3,CTATCAAA,-0.0229
4,CTCCGGGC,-0.0201
5,CCCCGAGC,-0.255
6,TCAAGCCA,-0.083
7,GCAGCTGC,-0.0641
8,TCGGCGCA,-0.179
9,AAAAACCC,-0.12
10,CTAGTGTA,0.0285
11,GATGCTCC,-0.182
12,CCTACGAG,0.341
13,CCTAGAGA,-0.206
14,CAGAGCAA,0.0622
15,CCGGAACC,-0.113
16,CATGACTC,-0.154
17,CTGGTGCA,-0.267
18,GATTATAC,0.243
19,AAGCCAGG,-0.286
20,ATCCCCGC,-0.0454
21,CTACTCGC,0.0818
22,TGCTGCAA,-0.0481
23,CCGACCAG,-0.171
24,ATAGGTGA,0.00835
25,AAATCTAT,0.142

row,Sequence,PBM E-score
1,GCCCATAC,0.0551
2,TCCCCCAA,-0.324
3,TGGCGGAA,-0.216
4,ACCGGAAA,-0.00571
5,GGATTTAA,0.00251
6,CTGTGATC,-0.235
7,ACCGCGCC,-0.0336
8,AGTGAACC,0.0989
9,CACGAAAG,-0.0189
10,GTCTTAAA,0.125
11,CATACGTC,0.215
12,GACTGTCA,-0.185
13,CAAGGGAA,-0.137
14,CTTTAATC,-0.0244
15,CAGAAGTC,-0.174
16,TATAGCAA,0.0967
17,AACCTTGA,-0.252
18,CGCCGGAA,-0.0373
19,ACCGGCCT,-0.0984
20,CTGTCCCC,-0.0777
21,GACACCAA,-0.0287
22,GGCGTCCC,-0.0589
23,ATAATCTA,0.0375
24,CGCCCTAA,-0.139
25,CAGCCAGC,-0.282

row,Sequence,PBM E-score
1,ATAAGACC,0.0321
2,CCCACGGA,-0.0221
3,AGATTAAT,-0.039
4,AAGGGTGT,-0.259
5,ATGGTACG,0.388
6,GGTCTCAC,-0.21
7,AATACGGA,0.259
8,GGCGCCTA,-0.106
9,CTTTGTTC,0.0304
10,AACGAGAG,0.425
11,TAGAGCTA,-0.281
12,CATGATAG,-0.202
13,CAAAGCGA,0.0534
14,CCTTGCTC,-0.0954
15,CGAACTTC,0.119
16,AATTCGTG,-0.0513
17,ATGCACAC,-0.00432
18,ACAAGCAA,-0.0489
19,AAGGACGG,-0.22
20,CCGTTCCG,0.323
21,CGATGTAC,0.199
22,CTAAGCGC,0.14
23,CAGCCTGC,-0.225
24,CAGATTAA,0.0152
25,GTCTGAAA,-0.0968

row,Sequence,PBM E-score
1,AACCGTAA,0.233
2,ACCCCAGA,-0.242
3,AGCTGCCG,-0.151
4,GTCTACAA,0.0292
5,AGACCCAG,-0.32
6,ACCCGCCA,0.0797
7,CTCGGACC,0.19
8,GAATAATC,0.182
9,GCCCCTAA,-0.112
10,AGCACGTA,0.19
11,CAGTGTGG,-0.283
12,CAAACTGC,-0.00883
13,ACGCGTAC,0.313
14,GATACGCC,0.189
15,CGCATTAG,-0.221
16,CTTACGAC,0.406
17,AAAGTCAG,0.0539
18,AAAACAAG,-0.0676
19,CGTGCGAG,0.141
20,ACGGGCGC,0.128
21,AAGCGTAT,0.33
22,AATTAACT,0.0834
23,AAGCGCTA,0.0119
24,CAGCCTAC,-0.107
25,CGCGGGCA,-0.061

row,Sequence,PBM E-score
1,CCTCGCCG,-0.214
2,CTCTACGC,0.0628
3,ATAAAATC,0.00926
4,ACGAGGTG,0.367
5,AGTCACTA,0.0366
6,CCCCCATA,-0.0568
7,GCCCGTTA,0.15
8,CAAGATGC,-0.217
9,ATATGCTG,-0.126
10,GCAATACA,0.0819
11,CAAGTATC,-0.0557
12,ACATCGCA,0.0936
13,CATCAGGC,-0.21
14,GCTTCGTA,0.449
15,ATAGGTTG,-0.168
16,ACCACGCT,-0.0508
17,GAGAGTAA,-0.126
18,ACAATGTA,0.0274
19,TCACATAA,0.036
20,ATCGTTAC,0.264
21,GCCCGAGC,-0.199
22,GACCCCAA,-0.0347
23,AGATGTTG,-0.202
24,ATGAGGGA,-0.0902
25,AGTTTAAA,0.11

row,Sequence,PBM E-score
1,AGGTCGGG,-0.16
2,GCAGAAGC,6e-05
3,GACGCTCA,-0.135
4,ACAGTTAT,-0.0929
5,AGCTAGCA,-0.112
6,AGCCTCTC,-0.241
7,CCACACCG,-0.0993
8,CCTGCGAC,-0.0909
9,CAGCAGCG,-0.0937
10,AATGCAGT,0.0382
11,CCATGTGC,-0.0783
12,AGCCAGGG,-0.0694
13,ACTGGATG,-0.109
14,CGGGCCAG,0.0433
15,CTTGGGGC,-0.245
16,CGTAAGCA,0.149
17,CAGTCCAG,-0.254
18,AGATAAAC,0.238
19,ACTGGACC,0.0454
20,GAATGTGC,0.0279
21,ATCATGAA,-0.0399
22,CAGCGCAA,-0.0763
23,AAGACATG,-0.154
24,GGCCCAAA,0.0278
25,CAGTTTGC,0.06

row,Sequence,PBM E-score
1,CATAAAGG,-0.152
2,CCTCCTAA,-0.169
3,CAGTCTCC,-0.188
4,ATTGAGCC,-0.18
5,TATAAGGA,0.133
6,TAAGTAGA,-0.00088
7,CACCTAAG,0.0522
8,GATAGACC,-0.00571
9,ATAAAAAC,0.123
10,CACCAGGC,-0.27
11,AGTTATGG,-0.179
12,CCCTTCAG,-0.232
13,ATCTCAGA,-0.0306
14,CACCGATA,-0.00776
15,CCGGTGCA,-0.153
16,AGCTGTAA,0.0117
17,CCGGCAGG,-0.141
18,CCTTTGAG,-0.14
19,CTCATATC,-0.258
20,TATGGTCA,0.0341
21,ATGATGCC,-0.174
22,ATTCACGC,-0.103
